Test results published in ChEMBL document CHEMBL4888484, “Replenishing the malaria drug discovery pipeline: Screening and hit evaluation of the MMV Hit Generation Library 1 (HGL1) against asexual blood stage Plasmodium falciparum ,using a nano luciferase reporter read-out” (2022).
Screen size: about 150,000 compounds; about 540 (0.36%) showed an effect of 50% or more. This is one part of the list.

These molecules were tested on Plasmodium falciparum (assay: Primary screen in NF54 nanoGlo assay, in single point, at 2uM, 72h; a lower Z score goes with more inhibition). Conditions: timepoint 72 hour.
Type: functional, Erythrocyte
For `Cc1cc(C(=O)NCC2CCN(Cc3ccoc3)CC2)no1`, the “% Inhibition” value was -11% and the Z score was 1.11.
`O=C(NCCCN1CCOCC1)c1cnc(-c2ccc3c(c2)OCO3)nc1Nc1ccccc1F` was tested, and the “% Inhibition” value was 5% and the Z score was -0.57.
`C[C@H]1[C@@H]2[C@@H](O)C([C@H](C)C(=O)NC3CCCCC3)CC[C@@]2(C)CC[C@@H]1NC(=O)CC(C)(C)C` (some centres not stated) was tested, and the “% Inhibition” value was 69% and the Z score was -5.14.
In the case of `Cc1nccc(N2CCN(C)[C@]3(CCC(=O)N(CC4CC4)CC3)C2)n1`, the “% Inhibition” value is reported as -13% and the Z score is reported as 1.3.
For `Cc1nc(Cn2cc(C(N)=O)nc2C2CC2)sc1C`, the “% Inhibition” value was -11% and the Z score was 1.31.
For `CN(Cc1nccn1CC(F)(F)F)c1cc(N2CCC[C@@H]2CO)ncn1`, the “% Inhibition” value was -7% and the Z score was 1.01.
For `C[C@@H]1Oc2ccc(NC(=O)C3=NN(C)C(=O)CC3)cc2NC1=O`, the “% Inhibition” value was -4% and the Z score was 0.59.
For `COc1ccc(C(=O)N[C@@H](C)CC(C)(C)O)c(C)c1`, the “% Inhibition” value was -4% and the Z score was 0.5.
In the case of `Cc1ccc(NC(=O)CC(=O)NCc2nnc3n2CCC3)c(C)c1`, the “% Inhibition” value is reported as -11% and the Z score is reported as 1.41.
With `Cc1cc(C)cc(Nc2c3c(nc4ncnn24)CCCC3)c1` the “% Inhibition” value was -17% and the Z score was 1.56.
For `Cc1cnc(C[C@H]2CCCN(C(=O)C3CCCC3)C2)n1C(C)C`, the “% Inhibition” value was 8% and the Z score was -1.27.
For `CCC[C@H](Nc1nc(-c2ccccn2)nc2c1CCNC2)c1nccn1C`, the “% Inhibition” value was -4% and the Z score was 0.62.
With `COc1ccccc1[C@@H](NC1CCOCC1)c1ccco1` the “% Inhibition” value was -6% and the Z score was 0.81.
For `C[C@](N)(CO)c1cc(Cl)cc(Cl)c1`, the “% Inhibition” value was 3% and the Z score was -0.42.
For `C[C@@H]1CN(C(=O)C(C)(C)Cc2cccc(Cl)c2)C[C@H]1CO`, the “% Inhibition” value was -11% and the Z score was 1.6.
For `CC(C)(O)C1CN(C(=O)Nc2ccccc2CN2CCc3ccccc32)C1`, the “% Inhibition” value was 28% and the Z score was -3.17.
In the case of `CC(=O)N1CCN(C(=O)CC(C)C)CC[C@H]1c1nc(C)no1`, the “% Inhibition” value is reported as -10% and the Z score is reported as 1.61.
With `COc1ccc(-c2noc(N3CCN(c4cccc(OC)c4)CC3)n2)cc1` the “% Inhibition” value was -5% and the Z score was 0.66.
In the case of `COCCN1C(=O)N(C)C(=O)[C@@]12CCN(Cc1cccc(OC)c1)C2`, the “% Inhibition” value is reported as 0% and the Z score is reported as -0.05.
For `O=C(c1ccccn1)N1CCc2cc(S(=O)(=O)NC3CCCC3)ccc21`, the “% Inhibition” value was -17% and the Z score was 1.58.
For `CCn1cc(CNC(=O)[C@@H]2CCCN2C(=O)OC(C)(C)C)cn1`, the “% Inhibition” value was -11% and the Z score was 0.89.
`Cc1ccc(N2C(=O)C3ON=C(c4cccnc4)C3C2=O)c(C)c1` (configuration not stated) was tested, and the “% Inhibition” value was -8% and the Z score was 0.95.
With `COc1ccc(-c2nccn3cc(C(=O)NCCc4ccccn4)nc23)cc1` the “% Inhibition” value was 32% and the Z score was -3.64.
With `Cc1csc(S(=O)(=O)N2C[C@H](CO)[C@@H](CO)C2)c1` the “% Inhibition” value was 1% and the Z score was -0.1.
With `CN1C[C@H]2CC[C@@H](C1)N(C(=O)c1cc3cccc(Cl)c3n1C)C2` the “% Inhibition” value was -5% and the Z score was 0.61.
With `Cc1nn(-c2ccccc2)c(N2CCN(C)CC2)c1CN(CCC(C)C)C(=O)c1ccc(C(C)(C)C)cc1` the “% Inhibition” value was -10% and the Z score was 0.89.
With `Cc1cc(C)c(C#N)c(NCC(F)(F)CN)n1` the “% Inhibition” value was -7% and the Z score was 0.92.
In the case of `O=C(NCc1c(Cl)cccc1-n1ccnc1)NC(=O)c1cccc(C(F)(F)F)c1`, the “% Inhibition” value is reported as -12% and the Z score is reported as 1.35.
With `COc1ccc(-c2ccc3c(c2)CCOC3)cc1C1(C#N)CC1` the “% Inhibition” value was -12% and the Z score was 2.16.
`Cc1cccc(NC(=O)CN(CC(N)=O)C2CCCC2)c1` was tested, and the “% Inhibition” value was -2% and the Z score was 0.21.
`Cc1cc(C#N)cc(C)c1OCCCC(C)(C)C#N` was tested, and the “% Inhibition” value was 4% and the Z score was -0.51.
For `COC[C@H](C)C(=O)NS(=O)(=O)c1cc(S(=O)(=O)N(C)C)ccc1Cl`, the “% Inhibition” value was -27% and the Z score was 3.17.
In the case of `Cc1nn(C)cc1[C@H]1OCC[C@@H]1NC(=O)NCCc1cccc(C(F)(F)F)n1`, the “% Inhibition” value is reported as -9% and the Z score is reported as 1.44.
With `Cc1nc(CN(C)CC2(CO)CCOCC2)no1` the “% Inhibition” value was -12% and the Z score was 1.65.
With `CCn1cc(NC(=O)N[C@@H](C)C2=CCCCC2)c(C)n1` the “% Inhibition” value was -12% and the Z score was 1.44.
`O=S(=O)(c1cccs1)N1CCC[C@H](c2nc(-c3ccccc3)c[nH]2)C1` was tested, and the “% Inhibition” value was 3% and the Z score was -0.44.
In the case of `COCC[C@]1(NC(=O)Nc2cccc(C)c2)CCN(C(=O)COc2ccc(OC)cc2)C1`, the “% Inhibition” value is reported as -6% and the Z score is reported as 0.85.
With `Cc1ccc(-c2nc(-c3cc4c(C)nn(-c5ccccc5)c4s3)no2)s1` the “% Inhibition” value was 20% and the Z score was -2.33.
In the case of `Cc1noc(C2(NC(=O)Nc3cnc4c(c3)COCC4)CCOCC2)n1`, the “% Inhibition” value is reported as -7% and the Z score is reported as 1.1.
`Cc1nc(CCNC(=O)Nc2ccccc2-c2ccccc2)c(C)o1` was tested, and the “% Inhibition” value was -2% and the Z score was 0.22.
`COc1ccc(CCc2nc(-c3cnn(C)c3)no2)cc1` was tested, and the “% Inhibition” value was -4% and the Z score was 0.59.
